This is one part of the list.
tested on: T1, C. trachomatis L2/434/Bu expressing GFP (CTL2-GFP); set-up: species or system HeLa; C. trachomatis total inclusion area by high-content imaging, normalised to DMSO; settings: total inclusion area; 28.5 h, 10 µM; inhibitor
T1 construct: L2/434/Bu GFP intracellular growth in HeLa cells
Method in brief: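 Following bulk GFP and resorufin fluorescence reads, infected cells were fixed, Hoechst-stained and imaged on a high-content platform. Inclusion total area and number per well served as growth proxies; nuclei counts indicated host viability. MICs were derived as for the fluorescence assay.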

| SMILES | % of control remaining |
| --- | --- |
| COCCN1C(=O)C2(CC(=O)N(CC(=O)N(C)C)C2=O)c2cc(F)ccc21 (stereo not shown) [CBK075428] | 112.791 |
| COc1ccc2[nH]c(=O)c(CN(CCCN3CCOCC3)C(=O)Nc3cccc(Cl)c3)cc2c1 [CBK135402] | 89.6942 |
| Cc1ncoc1C(=O)N1CCC2(C/C=C/C[C@H]3COCC[C@H]3NC(=O)CNC2=O)CC1 [CBK292086] | 119.927 |
| O=C(CN1CCCC1=O)NC(Cc1cccs1)c1nccs1 (stereo not shown) [CBK282177] | 75.5788 |
| COc1ccc(-c2cc(C(=O)NCCc3ccc(N)cc3)cnc2-c2ccc(Cl)cc2)cc1 [CBK037561] | 128.265 |
| CS(=O)(=O)N(CC(=O)NC1CCCCC1)c1cccc2ccccc12 [CBK263770] | 96.176 |
| CCOc1cccc(-c2cncc(NCCO)n2)c1 [CBK066075] | 102.798 |
| CCCCC12CN3CCN(CC(C3)/C1=N\N=C1/C3CN4CCN(C3)CC1(CCCC)C4)C2 [CBK264981] | 98.628 |
| CSCCC(=O)N1CCC2(CCN(Cc3ccccc3)C2)C1 (stereo not shown) [CBK136838] | 79.0059 |
| CCc1ccccc1-c1cccc(C(=O)NCC(O)CN(C)C)c1 (stereo not shown) [CBK306604] | 48.112 |
| O=C(CN1CCC(NC(=O)c2cccs2)CC1)Nc1ccc(F)c(F)c1 [CBK305991] | 77.2014 |
| CCOc1ccc(CC(=O)NC[C@H]2CC[C@H](c3cc(C(N)=O)c4ccccc4n3)CC2)cc1 [CBK285899] | 113.1 |
| CN(C)CC(Oc1ccccc1)C(=O)c1ccccc1 (stereo not shown) [CBK011935C] | 87.2515 |
| O=C(COc1ccccc1)NCC1(c2ccccc2)CCOCC1 [CBK067407] | 56.9608 |
| Cc1ccc2oc(-c3cc(NC(=S)NC(=O)c4ccc([N+](=O)[O-])cc4)ccc3O)nc2c1 [CBK263923] | 110.811 |
| Cc1nn(C)cc1CN(Cc1ccccc1F)CC1CCCO1 (stereo not shown) [CBK283014] | 86.916 |
| CC(=O)OC1CCn2c1nc1ccccc12 (stereo not shown) [CBK113621] | 92.4052 |
| O=[N+]([O-])c1ccc(CN2CCC(Oc3nccnc3OCc3ccc(Cl)c(Cl)c3)CC2)cc1 [CBK083107T] | 60.0813 |
| CCNS(=O)(=O)c1ccc2c(c1)N(Cc1cccnc1C)CC2 [CBK306020] | 35.7142 |
| COc1ccc(-c2c(-c3ccc(O)cc3O)n[nH]c2C)cc1OC [CBK265552] | 92.3464 |
| Cc1cc([N+](=O)[O-])ccc1/N=C\c1ccc(C(=O)O)cc1 [CBK262058] | 97.995 |
| CCn1ncc(Br)c1C(=O)Nc1ccc(Cl)cn1 [CBK265826] | 68.3608 |

— publication PMC12040169 (PLOS Biology, 2025)
